These are yes or no findings as the source states them, for the method shown. For some assays here: In cells and extracts the contact can be indirect. Some results given as binding are weak or reduced against the parent protein; the word gives no strength. For some assays here: Where a sequence is shown, tags or fusion partners need not be part of it. Values belong to the molecule of their own block, whether it stands above or below them.
Columns and labels:
[1] = molecular target: T1, AF4 (ALL1 fused gene on Chromosome 4), two-hybrid fusion (human) (UniProt P51825); experiment: two-hybrid; yeast strain AH109; deletion series of bait clones against full-length versions as GAL4-activation fusions; growth on media missing histidine and adenine
T1 sequence: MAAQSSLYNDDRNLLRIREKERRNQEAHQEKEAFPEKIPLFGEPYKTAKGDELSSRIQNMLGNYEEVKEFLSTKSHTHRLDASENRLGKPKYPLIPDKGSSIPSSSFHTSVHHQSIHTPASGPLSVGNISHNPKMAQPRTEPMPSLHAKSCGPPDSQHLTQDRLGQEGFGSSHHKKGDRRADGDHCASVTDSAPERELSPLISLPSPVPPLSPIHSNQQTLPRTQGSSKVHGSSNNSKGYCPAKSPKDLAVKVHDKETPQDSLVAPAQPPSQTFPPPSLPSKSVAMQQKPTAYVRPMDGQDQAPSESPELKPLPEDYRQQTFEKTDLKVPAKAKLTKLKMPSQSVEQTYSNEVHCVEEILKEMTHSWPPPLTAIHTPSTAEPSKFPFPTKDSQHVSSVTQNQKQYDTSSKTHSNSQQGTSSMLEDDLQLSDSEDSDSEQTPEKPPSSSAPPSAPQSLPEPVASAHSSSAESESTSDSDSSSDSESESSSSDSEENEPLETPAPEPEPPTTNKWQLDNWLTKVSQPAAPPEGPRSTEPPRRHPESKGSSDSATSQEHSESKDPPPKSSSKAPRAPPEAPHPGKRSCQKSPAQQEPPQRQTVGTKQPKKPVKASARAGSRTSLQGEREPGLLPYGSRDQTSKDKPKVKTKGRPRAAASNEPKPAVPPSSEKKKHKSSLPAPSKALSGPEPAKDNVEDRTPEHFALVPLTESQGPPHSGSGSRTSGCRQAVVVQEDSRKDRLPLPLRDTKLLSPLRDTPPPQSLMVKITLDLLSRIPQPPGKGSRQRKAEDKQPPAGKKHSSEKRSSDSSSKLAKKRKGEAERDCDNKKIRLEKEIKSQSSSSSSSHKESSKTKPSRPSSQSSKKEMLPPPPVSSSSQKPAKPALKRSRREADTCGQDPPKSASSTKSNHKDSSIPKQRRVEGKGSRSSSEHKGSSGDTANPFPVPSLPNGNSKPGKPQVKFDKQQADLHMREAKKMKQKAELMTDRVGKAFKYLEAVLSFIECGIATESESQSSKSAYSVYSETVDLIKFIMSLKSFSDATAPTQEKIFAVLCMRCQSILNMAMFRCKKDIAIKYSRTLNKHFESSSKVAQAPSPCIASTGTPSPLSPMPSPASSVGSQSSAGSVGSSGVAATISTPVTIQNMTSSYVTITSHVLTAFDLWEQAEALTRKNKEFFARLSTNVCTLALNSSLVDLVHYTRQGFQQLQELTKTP

By UniProt entry, the sequences of proteins in these tests, tags left out. Where a name states a change or a piece, a line headed by the entry shows the natural chain unless it says otherwise.
UniProt Q6XZL8: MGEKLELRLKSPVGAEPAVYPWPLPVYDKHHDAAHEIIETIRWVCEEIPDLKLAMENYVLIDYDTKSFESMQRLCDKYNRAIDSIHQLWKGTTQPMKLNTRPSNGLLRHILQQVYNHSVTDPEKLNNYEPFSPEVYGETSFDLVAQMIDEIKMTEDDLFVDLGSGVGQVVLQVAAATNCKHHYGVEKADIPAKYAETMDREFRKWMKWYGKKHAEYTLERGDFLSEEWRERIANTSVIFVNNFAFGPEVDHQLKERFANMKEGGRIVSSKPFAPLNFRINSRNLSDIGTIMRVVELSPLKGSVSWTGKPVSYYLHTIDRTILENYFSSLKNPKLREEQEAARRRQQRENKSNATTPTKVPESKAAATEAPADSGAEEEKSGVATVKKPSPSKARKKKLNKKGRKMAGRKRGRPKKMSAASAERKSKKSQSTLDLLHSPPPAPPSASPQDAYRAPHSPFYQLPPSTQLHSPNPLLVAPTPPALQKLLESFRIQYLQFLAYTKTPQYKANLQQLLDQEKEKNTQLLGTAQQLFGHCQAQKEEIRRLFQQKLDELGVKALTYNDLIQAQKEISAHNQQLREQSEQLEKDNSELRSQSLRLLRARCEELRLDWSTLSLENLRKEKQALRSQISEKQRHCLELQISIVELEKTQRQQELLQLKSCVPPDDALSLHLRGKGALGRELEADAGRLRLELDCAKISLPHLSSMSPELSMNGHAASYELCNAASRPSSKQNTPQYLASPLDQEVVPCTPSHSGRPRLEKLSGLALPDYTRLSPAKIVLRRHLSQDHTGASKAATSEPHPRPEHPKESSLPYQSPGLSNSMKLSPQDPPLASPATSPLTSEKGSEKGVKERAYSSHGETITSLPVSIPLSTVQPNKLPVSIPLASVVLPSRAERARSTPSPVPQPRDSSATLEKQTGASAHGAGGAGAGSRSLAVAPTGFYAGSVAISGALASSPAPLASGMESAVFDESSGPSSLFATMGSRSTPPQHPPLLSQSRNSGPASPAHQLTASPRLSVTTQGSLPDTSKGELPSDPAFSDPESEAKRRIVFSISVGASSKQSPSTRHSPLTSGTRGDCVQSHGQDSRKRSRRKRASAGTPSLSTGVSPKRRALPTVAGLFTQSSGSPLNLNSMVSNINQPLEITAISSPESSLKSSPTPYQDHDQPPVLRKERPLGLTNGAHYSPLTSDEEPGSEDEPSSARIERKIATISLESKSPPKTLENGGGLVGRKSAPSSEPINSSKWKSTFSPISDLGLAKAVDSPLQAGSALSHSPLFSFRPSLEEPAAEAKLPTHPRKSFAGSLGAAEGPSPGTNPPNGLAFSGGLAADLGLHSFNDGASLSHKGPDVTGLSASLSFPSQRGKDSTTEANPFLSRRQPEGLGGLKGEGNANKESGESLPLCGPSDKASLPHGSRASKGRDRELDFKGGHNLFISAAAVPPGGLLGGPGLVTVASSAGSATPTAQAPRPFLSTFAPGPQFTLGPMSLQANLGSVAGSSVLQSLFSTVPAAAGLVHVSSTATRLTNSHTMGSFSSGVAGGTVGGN
UniProt Q03164: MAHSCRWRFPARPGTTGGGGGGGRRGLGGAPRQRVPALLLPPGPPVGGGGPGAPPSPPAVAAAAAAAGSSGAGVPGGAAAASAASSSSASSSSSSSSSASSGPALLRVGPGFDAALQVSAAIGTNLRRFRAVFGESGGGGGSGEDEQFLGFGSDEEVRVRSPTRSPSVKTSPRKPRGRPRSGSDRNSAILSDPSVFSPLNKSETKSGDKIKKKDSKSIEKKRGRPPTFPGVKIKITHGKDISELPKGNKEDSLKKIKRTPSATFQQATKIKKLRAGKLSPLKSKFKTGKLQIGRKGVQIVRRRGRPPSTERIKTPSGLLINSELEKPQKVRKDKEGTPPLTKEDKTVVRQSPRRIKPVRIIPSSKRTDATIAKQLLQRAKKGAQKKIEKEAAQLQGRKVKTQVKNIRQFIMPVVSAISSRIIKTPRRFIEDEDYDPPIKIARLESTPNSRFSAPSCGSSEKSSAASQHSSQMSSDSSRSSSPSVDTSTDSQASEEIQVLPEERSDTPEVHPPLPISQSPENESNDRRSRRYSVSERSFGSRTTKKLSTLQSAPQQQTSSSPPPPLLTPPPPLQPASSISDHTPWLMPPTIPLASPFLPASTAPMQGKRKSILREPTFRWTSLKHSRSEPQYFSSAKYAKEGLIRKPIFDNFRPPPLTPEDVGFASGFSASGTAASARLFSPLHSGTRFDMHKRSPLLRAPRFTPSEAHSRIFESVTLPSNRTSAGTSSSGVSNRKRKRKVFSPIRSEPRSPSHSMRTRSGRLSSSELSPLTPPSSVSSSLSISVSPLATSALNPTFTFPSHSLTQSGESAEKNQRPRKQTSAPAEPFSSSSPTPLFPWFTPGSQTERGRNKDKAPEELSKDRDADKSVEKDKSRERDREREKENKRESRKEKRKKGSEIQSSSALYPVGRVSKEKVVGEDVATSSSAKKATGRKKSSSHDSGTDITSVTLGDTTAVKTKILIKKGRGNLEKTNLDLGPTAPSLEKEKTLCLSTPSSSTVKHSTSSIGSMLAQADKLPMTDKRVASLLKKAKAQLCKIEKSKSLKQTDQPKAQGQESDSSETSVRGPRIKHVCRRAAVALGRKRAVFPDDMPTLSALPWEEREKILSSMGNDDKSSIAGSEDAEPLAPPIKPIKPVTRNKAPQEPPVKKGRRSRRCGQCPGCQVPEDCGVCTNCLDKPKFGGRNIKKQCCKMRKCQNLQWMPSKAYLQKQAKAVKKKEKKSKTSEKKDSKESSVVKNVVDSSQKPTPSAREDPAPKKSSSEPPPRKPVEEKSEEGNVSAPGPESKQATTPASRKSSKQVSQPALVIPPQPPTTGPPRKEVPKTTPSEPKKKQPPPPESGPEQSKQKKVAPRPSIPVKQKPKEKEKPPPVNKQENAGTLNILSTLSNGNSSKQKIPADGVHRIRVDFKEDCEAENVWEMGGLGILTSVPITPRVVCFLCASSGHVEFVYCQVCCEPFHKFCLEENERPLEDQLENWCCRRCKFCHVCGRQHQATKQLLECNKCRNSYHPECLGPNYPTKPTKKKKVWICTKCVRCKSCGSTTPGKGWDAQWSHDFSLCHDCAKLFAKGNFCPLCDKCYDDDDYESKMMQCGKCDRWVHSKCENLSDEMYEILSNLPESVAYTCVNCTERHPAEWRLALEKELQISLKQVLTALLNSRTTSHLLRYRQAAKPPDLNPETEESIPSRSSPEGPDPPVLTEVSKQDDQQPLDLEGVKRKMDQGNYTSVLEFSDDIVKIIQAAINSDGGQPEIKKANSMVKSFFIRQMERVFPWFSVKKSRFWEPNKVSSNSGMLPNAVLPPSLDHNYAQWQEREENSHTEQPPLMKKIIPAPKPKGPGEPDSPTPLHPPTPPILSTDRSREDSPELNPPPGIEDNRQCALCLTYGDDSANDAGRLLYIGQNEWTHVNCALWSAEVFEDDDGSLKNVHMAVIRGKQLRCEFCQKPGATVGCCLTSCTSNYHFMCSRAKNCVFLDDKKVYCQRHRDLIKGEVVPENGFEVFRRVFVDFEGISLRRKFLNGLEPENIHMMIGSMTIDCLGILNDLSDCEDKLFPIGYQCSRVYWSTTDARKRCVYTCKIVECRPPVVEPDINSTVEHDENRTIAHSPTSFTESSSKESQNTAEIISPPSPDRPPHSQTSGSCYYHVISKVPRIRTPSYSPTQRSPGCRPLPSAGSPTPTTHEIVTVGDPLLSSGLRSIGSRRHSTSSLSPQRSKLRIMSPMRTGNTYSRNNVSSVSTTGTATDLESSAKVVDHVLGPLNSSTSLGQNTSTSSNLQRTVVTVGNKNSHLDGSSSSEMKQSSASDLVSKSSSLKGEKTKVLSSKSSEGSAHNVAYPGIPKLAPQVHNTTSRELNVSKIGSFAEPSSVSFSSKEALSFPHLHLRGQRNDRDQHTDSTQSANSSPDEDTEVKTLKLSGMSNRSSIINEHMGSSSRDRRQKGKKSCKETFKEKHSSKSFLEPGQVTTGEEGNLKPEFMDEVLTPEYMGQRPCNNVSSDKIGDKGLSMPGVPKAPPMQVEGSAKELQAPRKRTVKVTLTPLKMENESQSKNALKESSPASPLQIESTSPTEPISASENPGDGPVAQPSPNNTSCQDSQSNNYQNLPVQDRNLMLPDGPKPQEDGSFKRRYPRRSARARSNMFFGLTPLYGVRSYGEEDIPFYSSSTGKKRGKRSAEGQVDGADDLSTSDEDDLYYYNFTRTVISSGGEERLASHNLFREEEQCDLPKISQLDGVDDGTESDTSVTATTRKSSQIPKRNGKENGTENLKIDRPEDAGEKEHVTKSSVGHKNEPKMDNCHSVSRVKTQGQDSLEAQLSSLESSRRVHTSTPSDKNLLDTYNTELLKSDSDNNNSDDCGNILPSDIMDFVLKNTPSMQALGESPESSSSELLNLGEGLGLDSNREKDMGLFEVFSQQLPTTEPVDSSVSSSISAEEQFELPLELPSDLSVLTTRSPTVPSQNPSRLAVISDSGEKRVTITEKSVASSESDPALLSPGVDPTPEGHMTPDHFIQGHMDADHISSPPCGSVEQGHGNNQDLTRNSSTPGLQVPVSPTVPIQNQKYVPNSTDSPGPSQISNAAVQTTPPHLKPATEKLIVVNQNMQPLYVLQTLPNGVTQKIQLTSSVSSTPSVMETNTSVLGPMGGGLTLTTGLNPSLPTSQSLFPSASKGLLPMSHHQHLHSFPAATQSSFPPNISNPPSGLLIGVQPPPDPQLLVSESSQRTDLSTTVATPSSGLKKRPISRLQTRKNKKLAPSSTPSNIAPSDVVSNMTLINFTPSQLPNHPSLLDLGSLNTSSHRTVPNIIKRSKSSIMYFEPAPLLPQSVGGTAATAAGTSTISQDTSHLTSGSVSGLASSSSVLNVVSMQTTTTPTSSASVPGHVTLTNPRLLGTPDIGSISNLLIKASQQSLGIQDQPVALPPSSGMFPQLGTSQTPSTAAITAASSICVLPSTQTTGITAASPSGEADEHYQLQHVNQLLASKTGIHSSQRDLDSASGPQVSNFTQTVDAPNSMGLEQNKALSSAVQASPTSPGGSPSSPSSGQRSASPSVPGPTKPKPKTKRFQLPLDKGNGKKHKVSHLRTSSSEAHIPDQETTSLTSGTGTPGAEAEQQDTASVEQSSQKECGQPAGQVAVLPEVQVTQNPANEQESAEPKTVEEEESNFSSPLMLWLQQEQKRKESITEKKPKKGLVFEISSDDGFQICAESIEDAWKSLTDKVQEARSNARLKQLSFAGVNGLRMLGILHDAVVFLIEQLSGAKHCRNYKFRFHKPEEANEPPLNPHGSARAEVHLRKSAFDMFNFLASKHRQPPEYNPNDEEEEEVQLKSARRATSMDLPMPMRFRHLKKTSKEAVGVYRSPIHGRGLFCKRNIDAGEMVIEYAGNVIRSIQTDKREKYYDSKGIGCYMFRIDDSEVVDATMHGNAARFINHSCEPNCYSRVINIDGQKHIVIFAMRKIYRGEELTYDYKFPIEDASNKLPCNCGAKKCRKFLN
UniProt P50750: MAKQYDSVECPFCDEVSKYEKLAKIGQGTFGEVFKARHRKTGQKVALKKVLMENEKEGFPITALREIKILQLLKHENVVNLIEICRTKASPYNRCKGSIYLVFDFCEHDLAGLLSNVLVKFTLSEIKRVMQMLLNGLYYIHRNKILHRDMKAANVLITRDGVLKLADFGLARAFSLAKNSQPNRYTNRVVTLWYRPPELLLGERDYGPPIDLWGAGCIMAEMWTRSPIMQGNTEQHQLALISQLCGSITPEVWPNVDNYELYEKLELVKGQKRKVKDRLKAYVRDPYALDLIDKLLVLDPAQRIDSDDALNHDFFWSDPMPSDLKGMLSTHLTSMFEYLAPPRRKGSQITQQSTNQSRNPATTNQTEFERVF

[2] = molecular target: Dot1l (disruptor of telomeric silencing like), mouse, two-hybrid fusion (mouse) (UniProt Q6XZL8); experiment: as above
[3] = molecular target: T2, ENL (eleven nineteen leukemia protein), full-length two-hybrid fusion (human) (UniProt Q03111); experiment: as above
T2 sequence: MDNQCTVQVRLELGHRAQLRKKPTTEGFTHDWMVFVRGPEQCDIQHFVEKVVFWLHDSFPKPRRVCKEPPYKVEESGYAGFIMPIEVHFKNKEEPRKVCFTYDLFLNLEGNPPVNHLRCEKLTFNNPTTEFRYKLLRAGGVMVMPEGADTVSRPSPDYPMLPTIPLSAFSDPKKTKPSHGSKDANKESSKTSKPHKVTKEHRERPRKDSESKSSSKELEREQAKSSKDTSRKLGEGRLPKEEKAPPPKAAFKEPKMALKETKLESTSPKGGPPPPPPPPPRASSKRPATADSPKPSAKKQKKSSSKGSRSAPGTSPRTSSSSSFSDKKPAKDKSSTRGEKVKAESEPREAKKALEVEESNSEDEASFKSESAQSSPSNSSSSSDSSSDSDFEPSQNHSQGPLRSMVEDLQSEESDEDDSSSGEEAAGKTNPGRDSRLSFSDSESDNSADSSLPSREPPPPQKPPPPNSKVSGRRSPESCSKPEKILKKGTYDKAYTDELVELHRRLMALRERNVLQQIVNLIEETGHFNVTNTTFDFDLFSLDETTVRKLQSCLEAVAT

[4] = molecular target: T3, ENL lacking the last 15 amino acids (ENL 1-544), two-hybrid bait (human) (UniProt Q03111); experiment: as above
T3 sequence: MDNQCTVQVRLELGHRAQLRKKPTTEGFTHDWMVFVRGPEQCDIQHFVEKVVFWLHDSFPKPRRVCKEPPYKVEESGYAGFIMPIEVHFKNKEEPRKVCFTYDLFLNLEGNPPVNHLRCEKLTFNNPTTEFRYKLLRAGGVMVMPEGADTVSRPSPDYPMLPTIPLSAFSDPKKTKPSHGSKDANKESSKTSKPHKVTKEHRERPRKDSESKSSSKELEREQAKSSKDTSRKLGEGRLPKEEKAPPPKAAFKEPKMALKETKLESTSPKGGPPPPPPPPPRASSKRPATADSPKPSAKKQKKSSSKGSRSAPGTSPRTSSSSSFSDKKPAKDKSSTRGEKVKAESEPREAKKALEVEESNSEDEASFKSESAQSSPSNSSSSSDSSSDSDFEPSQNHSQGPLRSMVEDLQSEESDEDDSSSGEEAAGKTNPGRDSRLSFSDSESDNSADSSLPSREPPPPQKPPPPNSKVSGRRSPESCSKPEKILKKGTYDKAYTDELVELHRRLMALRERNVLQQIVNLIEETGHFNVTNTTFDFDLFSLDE

[5] = molecular target: wild-type MLL of REH cells (human (endogenous in REH)) (UniProt Q03164); experiment: co-IP; native SEM (MLL-AF4) and REH (no 11q23 translocation) cells, all proteins endogenous; anti-MLL IgM (HRX107) coupled to sepharose; blots for ENL and CDK9

binding [3]: binds
binding [4]: no binding
Molecule: Dot1l (disruptor of telomeric silencing like), mouse, two-hybrid fusion (from UniProt Q6XZL8-1 1-1540)

binding [1]: binds
B1: ENL (eleven nineteen leukemia protein), full-length two-hybrid fusion (natural protein, human, UniProt Q03111 1-559, looked up)
chain: T2 sequence

Second part, the molecule before the results:

Molecule: CYCT2A (Cyclin T2, the cyclin component of pTEFb), two-hybrid fusion (from UniProt O60583-2 1-663)
binding [1]: binds
binding [2]: binds
binding [3]: no binding

Molecule: endogenous CDK9 (cyclin dependent kinase 9, kinase of pTEFb) (from UniProt P50750 1-372)
binding [5]: no binding

B2: endogenous ENL (protein, UniProt Q03111 1-559)
chain: T2 sequence
binding [5]: no binding
